# Test results reported in the supplement of paper PMC11417369.
# This is one part of the list.
# Test system: PfHDP1 homeodomain (GST-tagged)
# Test: gcPBM binding intensity (ln(normalized median fluorescence intensity)); higher = stronger DNA binding
# Method in brief: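 GST-tagged P. falciparum DNA-binding domains, expressed in E. coli (about 25 μg on average), were applied for 1 h to an Agilent 4 × 180k array of primer-extended double-stranded 36-bp intergenic genomic probes plus negative controls. The binding buffer was 1× PBS with 1% milk, 0.2 mg/ml BSA, 0.5% salmon testes DNA and 0.03% Triton X-100. Bound protein was detected with Alexa488 anti-GST antibody and scanned at 488 nm. Binding intensity is the highest Masliner-normalised natural-log median intensity across replicate spots of either probe orientation.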
row,Sequence,gcPBM binding intensity (ln)
1,TGATTCTTTTGTATCACACACACTTAGTTTAATTTT [CACACA_site2404],6.87
2,ATTGATCGGATAAAATGTACAAATATATATATATAT [XGTACX_site7345],9.16
3,ATTTATAATGTGTATACACACATATATAGATTTGCT [CACACA_site6440],6.82
4,AACTCACATAAATTCACACAAATGTATATTCATATA [CACACA_site4554],6.35
5,TATATATATTTATATGCATGTAATATATTTGTATTG [TGCATGCA_site323],6.58
6,TGTTCTCTTCTTTTTTATTTTCCAAAGTAATAAGTT [TGCATGCA_negctrl_site424],6.48
7,TTAATTATAATTATATGTACGAACTTTTTTTTTTTT [XGTACX_site6586],6.22
8,CATAAATCAGCCATAACACACATACATAAATACATA [CACACA_site4380],6.6
9,AGAAAAAAGAGGGATACACACAAACATATATATATA [CACACA_site5269],8.78
10,AATTATTTTATGAAAAGTACACATTGTTTTAATTCT [XGTACX_site4506],6.12
11,TAAATAAGTATTACTAGTACACACAAGTTGTTAATC [XGTACX_site7074],6.5
12,ACAGTATCTGGTAGCTGTACGAGTCGTAGAGTGTAG [XGTACX_site2011],6.69
13,TTCATTAATGTGTAATGTACTTGTAATATGGGATTA [XGTACX_site3903],6.42
14,AATATATAAATAAATATATAAATAAATAATTGAAGC [CACACA_negctrl_site348],6.52
15,AAAATATAAAGTATTTGTACATAATATATTTTTAAA [XGTACX_site3494],6.07
16,CATTTTTTAATAATAGCACACAGGACATACAAAACA [CACACA_site1245],7.22
17,TTATATATTTTATTATTTATAATCTTTTTTTTATTT [CACACA_negctrl_site112],6.1
18,TTATATTTCAATTAAACATGCATTTTTGTGTAGCAC [TGCATGCA_site214],6.56
19,TCATATAGATTATACACACACATATATAGATATATA [CACACA_site6587],6.75

row,Sequence,gcPBM binding intensity (ln)
1,AAATTGATTATAAATTGTACAAGAACATACAACCTT [XGTACX_site5986],6.23
2,CAAAAGCGATACGGCACACATTTCCTGTTTAAATGA [CACACA_site5519],6.25
3,TTAATTTTTAGAAGAACACACACATATATATTATGA [CACACA_site7969],6.33
4,TTTTGCCTTTCTACTTGTACTTAAAATATTATAATT [XGTACX_site5483],7.22
5,TGGTATATAAAACACACACACATATGTATTTATATA [CACACA_site4665],6.62
6,TTTATTTATTATTAAAGTACTAAATCATATAATTAT [XGTACX_site5727],6.04
7,AAATTAAAAAAATAATGTACATGTATTTATTATGTA [XGTACX_site2419],6.63
8,TTTCTGTGTTTTGGTTGTACACACGCTACATTATAT [XGTACX_site5669],7.71
9,TTGTTTTTTTTTTCTATAAGCATAAAAATGATATAA [XGTACX_negctrl_site356],6.05
10,AGTATTCACTTAATATGTACATATTTATTATAAGAG [XGTACX_site3434],6.85
11,GCTTTTAAAATAATTGGTACACATGTATAAATTCAA [XGTACX_site2327],6.55
12,TAAAACAATACTTTGTGCTTCTCTGGTTTTTTTTTT [GTGCAC_negctrl_site284],6.04
13,TTTTATTTCTTTGCACCATTTTAAATACAAACAAAT [CACACA_negctrl_site1553],11
14,TTCAAAAGCCGGATAACATGCAGTAGTAGAACAAAC [TGCATGCA_site413],7.42
15,TTTATTTATGTTGAAACATGCAAAAAGTTATTTATA [TGCATGCA_site716],6.48
16,ACTCCATAATATTGATGTACTATAATGCATTTATTT [XGTACX_site5562],7.19
17,TTATAGAATTTATTTACACACAAACATTTATACTTT [CACACA_site7592],6.49
18,TATTTATTTTCATATAGTACTTTTTTCAGGCATATA [XGTACX_site6691],6.37
19,ATATGAACATTTACATGTACATGTAAATGTAACACT [XGTACX_site4574],6.33

row,Sequence,gcPBM binding intensity (ln)
1,GAAAATATGTAATAGTGTACACATATATATGTATAT [XGTACX_site306],6.73
2,TGCTCATTCCTGTCATGTACATATTATATATATATA [XGTACX_site6890],8.68
3,CACAAAAAGAAACACACACACATATATATATATATA [CACACA_site999],9.35
4,ATTCTAAATAATAAGAGTACAAATAATATGGAGAAG [XGTACX_site5209],7.15
5,TGTACAAATATGTACACACACACATATTTATTTATA [CACACA_site6419],6.78
6,TATGTATAAAAATAATGTACAAAATATATTATATGT [XGTACX_site2794],6.46
7,ATACTATAATAATACACACTCATTAGATATATAAAG [CACACA_site7787],6.82
8,AAAAAACAAAAAAATACACACATAAAAAGGTTTTAG [CACACA_site3584],6.58
9,TAAACATAACAAAGGAGTACAAAACTTGATCAGTTC [XGTACX_site3114],6.67
10,AAATATGTCAAATATACACACATAATAAATATAATA [CACACA_site2310],6.39
11,TTATAAGATGATTATAAAATCAAATTCATTCTTTTA [CACACA_negctrl_site1338],5.78
12,GAAATGGGTAAACATACACACACACCGATATATATA [CACACA_site8610],6.89
13,TAACAATTATGCTGGTGTACGTTTGAAATTGGGTAT [XGTACX_site6846],6.58
14,AAAAATTTCTATTTTTGTACTTACTTTTTAGTAATA [XGTACX_site5236],5.8
15,AATAAATGGAAAAGGTGTACACAAAAAAAAGGGAAA [XGTACX_site4956],7.54
16,AAAAAAAAAAAAAAAACATGCAGTTAGTGGTTTTTT [TGCATGCA_site243],6.61
17,TACACAAGAAAATTCACACACACACCGATATATATA [CACACA_site6008],6.93
18,AAATCTTCATAATAAAGTACTTAACTCTTGGTGTTA [XGTACX_site6112],6.24
